Source: PubChem BioAssay AID1745853 (National Center for Advancing Translational Sciences (NCATS), 2022)
The list shows a part of the results. The main result of the screen is listed elsewhere. These columns were measured beside it and carry no call.

Key:
Assay in all cases: Primary Screen for Target Class Profiling of Small Molecule Inhibitors of Methyltransferases
[1] = target: Guanidinoacetate N-methyltransferase (Homo sapiens) (UniProt Q14353); conditions: purified enzyme, MTase-Glo SAH luminescence; measured here: GAMT inhibition; at 40 µM; stronger effect = lower value
Outline: (§1)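 Each enzyme was reacted with SAM and its substrate, with compounds tested once at 40 uM; SAH formed was read by MTase-Glo luminescence.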

[2] = target: Nicotinamide N-methyltransferase (Homo sapiens) (UniProt P40261); conditions: purified enzyme, MTase-Glo SAH luminescence; measured here: NNMT inhibition; at 40 µM; stronger effect = lower value
Outline: as §1

[3] = target: Phenylethanolamine N-methyltransferase (Homo sapiens) (UniProt P11086); conditions: purified enzyme, MTase-Glo SAH luminescence; measured here: PNMT inhibition; at 40 µM; stronger effect = lower value
Outline: as §1

[4] = target: Glycine N-methyltransferase (Homo sapiens) (UniProt Q14749); conditions: purified enzyme, MTase-Glo SAH luminescence; measured here: GNMT inhibition; at 40 µM; stronger effect = lower value
Outline: as §1

[5] = target: Histamine N-methyltransferase (Homo sapiens) (UniProt P50135); conditions: purified enzyme, MTase-Glo SAH luminescence; measured here: HNMT inhibition; at 40 µM; stronger effect = lower value
Outline: as §1
On the % scale 0 is the no-effect control and ±100 the full control effect.

SMILES | activity change, negative = inhibition [1] | activity change, negative = inhibition [2] | activity change, negative = inhibition [3] | activity change, negative = inhibition [4] | activity change, negative = inhibition [5]
Cc1nc(CNc2ncnc3ccc(-c4ccc5c(c4)OCO5)cc23)cs1 | -25.1% | -40.5% | -32% | – | –
CCN(C(=O)CCC(=O)N1CCC(C)(c2noc(C)n2)CC1)c1ccccc1 | 3.93% | 0.1% | 3.39% | 1.64% | 1.45%
Cc1noc(C)c1S(=O)(=O)N1CC(n2cnnc2C2CCCO2)C1 (stereo not drawn) | 5.43% | -1% | 16.7% | 0.44% | 1.71%
COc1ccc(CCNc2nc3c(-c4ccccc4)nnn3c3ccccc23)cc1OC | 0.765% | -1.52% | 0.235% | -1.91% | 5.44%
CC(=O)OC(C)(C)/C=C/C(=O)[C@](C)(O)[C@H]1C(O)C[C@@]2(C)[C@@H]3CC=C4[C@@H](C=C(O[C@@H]5O[C@H](CO)[C@@H](O)[C@H](O)[C@H]5O)C(=O)C4(C)C)[C@]3(C)C(=O)C[C@]12C (stereo partly drawn) | 5.96% | -6.29% | 9.16% | 1.43% | 14.3%
Cc1ccc(C(=O)Cn2nc3n(C(C)C)c(=O)c4ccc(C(=O)NCC(C)C)cc4n3c2=O)cc1 | 0% | -3.2% | 3.28% | 0.517% | 4.22%
Cn1nnc2cc(CNC(=O)c3cccnc3)ccc21 | 0.038% | -0.147% | 2.3% | 5.66% | 0.767%
Cc1cccc(-c2ocnc2C(=O)N2CC[C@H](CO)[C@H](NC(=O)C3CC3)C2)c1 | -1.69% | -1% | 5.12% | 1.97% | 3.02%
Cc1ccc(CNC(=O)Cn2nc3n(CCc4ccccc4)c(=O)c4ccccc4n3c2=O)cc1 | 1.56% | -2.04% | 1.67% | 5.01% | 8.72%
COc1ccc2nccc(C(=O)CC[C@@H]3CCN(CC#Cc4cc(F)cc(F)c4F)C[C@@H]3C(=O)O)c2c1 | 2.87% | -24.1% | -2.44% | -20.4% | 7.14%
COc1cccc(N2C(=O)c3cc4ccccc4n3CC2(C)C(=O)NCCC(C)C)c1 (stereo not drawn) | 3.87% | 4.97% | 0.4% | 1.97% | -1.85%
CO/N=C(/C(=O)N[C@@H]1C(=O)N2C(C(=O)O)=C(Cn3nnc(C)n3)CS[C@H]12)c1csc(N)n1 | 3.18% | -7.92% | 3.75% | 1.36% | 11.9%
O=c1c2ccccc2n2c(-c3cc(Cl)ccc3O)nnc2n1Cc1ccc(F)cc1 | -11.5% | -33.4% | -15.5% | -17.3% | -5.74%
CCOc1ccc(N2C(=O)c3cc(C(C)(C)C)nn3CC2(C)C(=O)NCc2ccccc2)cc1 (stereo not drawn) | 0% | 4.77% | -1.06% | -0.663% | 0.328%
C=C1C(=O)O[C@@H]2/C=C(/C)CC3C=C(C[C@H](OC(=O)/C(C)=C\C)[C@@H]12)C(=O)O3 (stereo partly drawn) | -3.98% | -12.8% | 2.55% | -3.12% | 1.65%
CC(C)N1C(=O)C2(CCCC2)C1C(=O)Nc1ccncc1 (stereo not drawn) | -7.04% | -16.5% | -8.2% | -5.15% | -5.38%
Cc1cc2c(s1)Nc1ccccc1N=C2N1CCN(C)CC1 | 8.21% | -13.2% | 3.65% | 5.45% | 13.1%
CCCn1c(=O)c2cc(F)ccc2n2c(SCC(=O)Nc3ccccc3Cl)nnc12 | 3.5% | -7.15% | 1.65% | -9.26% | 8.29%
O=C(O)CC1CCCc2ccccc2C1O (stereo not drawn) | 14.3% | -0.992% | 10.5% | 4.83% | 9.51%

SMILES | activity change, negative = inhibition [1] | activity change, negative = inhibition [2] | activity change, negative = inhibition [3] | activity change, negative = inhibition [4] | activity change, negative = inhibition [5]
CC(C)CCNC(=O)C1(C)Cn2c(cc3ccccc32)C(=O)N1Cc1cccc(Br)c1 (stereo not drawn) | 1.63% | -8.74% | -5.93% | -4.96% | -3.79%
CC1(C(=O)Nc2ccccc2F)COCc2cnc(Nc3ccccc3)nc21 (stereo not drawn) | -5.85% | -10.8% | 0.015% | -11.2% | -9.07%
CN(Cc1ccc(-n2cccn2)cc1)CC1CCN(CCc2ccc(F)cc2)CC1 | -10.2% | -21.7% | -20.9% | -7.63% | -11.9%
Cc1n[nH]c(C)c1CNc1cc(C2CC(O)C2)ncn1 (stereo not drawn) | -8.32% | -3% | 2.05% | -0.822% | 2.67%
Cc1ccc(-c2nnn3c2nc(NCc2ccc(F)cc2)c2ccccc23)cc1 | 4.56% | 1.36% | -5.37% | -1.08% | 0.836%
CC1(C(=O)NC2CCCCCC2)Cn2nc(-c3ccco3)cc2C(=O)N1Cc1ccco1 (stereo not drawn) | -11.7% | -3.37% | 0.3% | 2.83% | 8.82%
C=Cc1ccc(Cn2nc3n(CCC)c(=O)c4ccccc4n3c2=O)cc1 | 4.25% | -15% | -1.06% | -5.43% | 2.13%
Cc1cccc(N2C(=O)c3cc4occc4n3CC2(C)C(=O)NC2CCCC(C)C2C)c1C (stereo not drawn) | 2.14% | -6.98% | -4.84% | -3.27% | -0.89%
CCOc1ccc(-c2cc3n(n2)CC(C)(C(=O)NC2CCCCC2)N(C2CCCC2)C3=O)cc1 (stereo not drawn) | 2.4% | -2.11% | -3.51% | -14.8% | -5.51%
Cn1c(=O)c2ccc(C(=O)NC3CCCC3)cc2n2c(=O)n(Cc3ccccc3F)nc12 | 0% | 0.105% | 3.94% | 2.53% | 1.56%
CN1C(=O)C(Cc2c[nH]c3ccccc23)NC1=S (stereo not drawn) | 5.99% | -13% | -5.82% | 2.65% | 0.139%
CCC[C@H](N[C@H]1CCc2cc(F)cc(F)c2C1)C(=O)Nc1cn(C(C)(C)CNCC(C)(C)C)cn1 | 2.05% | -17.9% | -14.7% | -0.562% | -3.45%
O=C(CCc1nnc2n(Cc3ccc(F)cc3)c(=O)c3ccccc3n12)NCc1ccccc1Cl | 3.92% | -4.31% | 1.25% | -7.55% | 2.83%
O=[S+]([O-])(c1cccc(C(F)(F)F)c1)N1CC(CNc2cccnc2)C2(CN(c3ccccc3)C2)C1 (stereo not drawn) | -9.5% | -11% | -8.32% | -8.83% | -15.8%
Cc1ccc(NC(=O)CSc2nnc3[nH]c(=O)c(C)nn23)cc1C | 0% | -2.94% | -2.58% | 1.28% | -1.55%
COc1ccc(N(C(=O)c2ccncc2)S(=O)(=O)c2ccc3c(c2)n(C)c(=O)n3C)cc1 | 2.35% | 6.67% | -2.2% | -2.05% | 1.8%
CCCCOc1ccccc1-c1cc2n(n1)CC(C)(C(=O)NC1CCCCC1)N(CCC)C2=O (stereo not drawn) | 5.05% | 4.27% | -2.96% | 1.06% | -0.834%
CCCn1c(=O)c2ccccc2n2c(SCC(=O)Nc3ccccc3CC)nnc12 | 0% | 5.59% | 5.5% | 0.677% | 3.18%
CCOC(=O)c1cc2n(n1)CC(C)(C(=O)NCc1ccccc1)N(c1ccc(OC)cc1)C2=O (stereo not drawn) | 0% | 5.77% | 3.82% | 7.18% | 3.29%
